Data from the supplement of paper PMC4604168 (melanoma cell lines).
The list shows a part of the results. Most values come without repeats; read them as rough.

tested on: COLO792; assay: cell count relative to DMSO control; melanoma cells; higher = more viable cells; settings: library dose: standard library concentration; 72 h
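Also: cells treated in 1,536-well plates, then fixed and DAPI-stained, with nuclei counted from automated high-throughput microscope images.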

**Q.** `Cc1cc(Nc2cc(N3CCN(C)CC3)nc(Sc3ccc(NC(=O)C4CC4)cc3)n2)n[nH]1` [Tozasertib] + C[C@]1(O)C[C@@H](c2nc(-c3ccc4ccc(-c5ccccc5)nc4c3)c3c(N)nccn32)C1 [OSI906] (first compound 0.03 µM, partner dose 2 µM) was tested. Which cell count did it give?
**A.** Its cell count is 64.3%.

**Q.** How did the cell count turn out when `Cc1cc(Nc2cc(N3CCN(C)CC3)nc(Sc3ccc(NC(=O)C4CC4)cc3)n2)n[nH]1` [Tozasertib] + Cn1c(=O)n(-c2ccc(C(C)(C)C#N)cc2)c2c3cc(-c4cnc5ccccc5c4)ccc3ncc21 [NVP-BEZ235] (first compound 0.03 µM, partner dose 0.02 µM) was run?
**A.** The cell count was 87.9%.

**Q.** How did the cell count turn out when `CC[C@]1(O)C[C@H]2CN(CCc3c([nH]c4ccccc34)[C@@](C(=O)OC)(c3cc4c(cc3OC)N(C=O)[C@H]3[C@@](O)(C(=O)OC)[C@H](OC(C)=O)[C@]5(CC)C=CCN6CC[C@]43[C@@H]65)C2)C1` [vincristine] + C=CCn1c(=O)c2cnc(Nc3ccc(N4CCN(C)CC4)cc3)nc2n1-c1cccc(C(C)(C)O)n1 [MK1775] (first compound 0.0005 µM, partner dose 0.1 µM) was run?
**A.** The cell count was 52.5%.

**Q.** With `Cc1cc(Nc2cc(N3CCN(C)CC3)nc(Sc3ccc(NC(=O)C4CC4)cc3)n2)n[nH]1` [Tozasertib] + N#Cc1c(O)c2c(-c3ccc(-c4ccccc4O)cc3)csc2[nH]c1=O [A769662] (first compound 0.03 µM, partner dose 10 µM) as the molecule, how does the cell count read?
**A.** Its cell count is 86.4%.

**Q.** Which cell count does the source give for `Cc1cc(Nc2cc(N3CCN(C)CC3)nc(Sc3ccc(NC(=O)C4CC4)cc3)n2)n[nH]1` [Tozasertib] + CN(C)S(=O)(=O)c1ccc2c(c1)/C(=C/c1cc3c([nH]1)CCCC3)C(=O)N2 [SU6656] (first compound 0.03 µM, partner dose 2 µM) here?
**A.** The cell count was 55.8%.
